In all, about 410,000 compounds went through this assay and about 7,200 (1.8%) were called active. The inconclusive results got no clear call from the source; some entries with a clear call stand among them for comparison. The call rests on the fitted dose curve; in most records, active means well fitted activation curve with a large enough effect; inconclusive means small, poorly fitted or top-dose-only effect, or another doubt; inactive means no such curve, though single readings can be large or run the other way. No potency is given beside an inconclusive call; the fits are too rough.
Experiment: qHTS of TDP-43 Inhibitors; further: nearly all actives have a fitted effect of over 50% in size; on growth rescue (activation): % of control where 0% means no effect
Details: TDP-43 expressing yeast growth rescue, BacTiter-Glo, 24 h; growth rescue (activation): at 46.1 µM (top of the series) unless noted
Summary of the method: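 Readout is BacTiter-Glo luminescence of cell growth, so inhibitors register as activators. TDP-43-expressing yeast at OD600=0.02 in galactose medium, after raffinose pregrowth to mid-log, were incubated with compound for 24 hr at 30 deg C.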
Potency means the concentration at half of the fitted maximal effect; tags describe the fitted curve by direction and shape.

| Compound | Potency | growth rescue (activation) |
| --- | --- | --- |
| CC(C)CN(C(=O)c1ccc(=O)n(C)n1)c1nc2ccccc2s1 | active: 15.8 µM |  |
| COc1ccccc1NC(=O)CCCC(=O)OCC(=O)c1ccc(F)cc1 | inconclusive [activator, single point] |  |
| O=C(Nc1ccccc1C(=O)OCc1cc(=O)n2c3c(sc2n1)CCCC3)c1ccccc1 | inactive |  |
| C=CCc1ccccc1OCC(=O)N/N=C/c1ccccc1OCC | inconclusive [activator, partial curve, poor fit] |  |
| CCOC(=O)c1c(C)oc2nc(C)nc(N(CC(C)C)CC(C)C)c12 | inconclusive [activator, single point] |  |
| Cc1nc2ccc(S(=O)(=O)N(C)CC(=O)N3CCc4ccccc4C3)cc2s1 | inconclusive [activator, single point] |  |
| O=C(c1c(Cl)cccc1Cl)N1CCN(c2cccc3[nH]ccc23)CC1 | inconclusive [activator, single point] |  |
| Cc1ccc(CCN=c2c([N+](=O)[O-])nn(-c3ccccc3)n2O)cc1 | active: 11.2 µM |  |
| CC(C)CN(CC(C)C)c1nc(-c2ccc(Cl)cc2)nc2ccccc12 | active: 35.5 µM |  |
| O=C(COC(=O)Cc1cccs1)Nc1ccccc1Cl | inconclusive [activator, partial curve] |  |
| CCn1nccc1C(=O)Nc1cc(Cl)cc(Cl)c1 | active: 20 µM |  |
| CCc1cc2c(=O)[nH]c(-c3ccccn3)nc2s1 | inconclusive [activator, single point] |  |
| C=CCc1c(C)nc2nc(SCC(=O)Nc3cccc(Cl)c3)nn2c1C | active: 31.6 µM |  |
| CC(=O)c1c(C)[nH]c(-c2ccccc2)nc1=S | inconclusive [activator, partial curve] |  |
| Cc1ccc(C)c(NC(=O)Cn2nnc(-c3ccc(N4CCOCC4)cc3)n2)c1 | inactive |  |
| O=C(N1CCN(c2ccccc2)CC1)C1(S(=O)(=O)c2ccc(Cl)cc2)CC1 | inconclusive [activator, single point] |  |
| CCOc1ccccc1NC(=O)COC(=O)c1cn(CC)c2nc(C)ccc2c1=O | active: 35.5 µM |  |
| COc1ccccc1C(=O)Nc1ccc(NC(=O)c2cccs2)cc1 |  | inconclusive: -30.9% [activator] |
| COc1ccc([N+](=O)[O-])cc1NC(=O)C(C)OC(=O)/C=C/c1ccco1 (stereo not given) | active: 25.1 µM |  |
| N#CCCSC(=S)C1CCCC1=N (stereo not given) | inconclusive [activator, partial curve] |  |
| Cc1ccc(-n2ncc(Br)c(Br)c2=O)cc1 | inconclusive [activator, partial curve] |  |
| CCOc1ccc(S(=O)(=O)NCC(c2ccco2)S(=O)(=O)c2ccc(C)cc2)cc1 (stereo not given) | inconclusive [activator, full curve] |  |
| Nc1ncc(-c2ccc(-c3ccccc3)cc2F)cc1-c1ccccc1F | inconclusive [activator, single point] |  |
| O=C(Cc1ccccc1)N1CCC(c2nc(-c3ccc(F)cc3)no2)CC1 | inconclusive [activator, single point] |  |

| Compound | Potency | growth rescue (activation) |
| --- | --- | --- |
| O=C(Nc1nc(-c2cccs2)cs1)c1ccco1 | inconclusive [activator, single point] |  |
| O=[N+]([O-])c1ccc(CSc2nnc(Cc3ccccc3)o2)cc1 | inconclusive [activator, single point] |  |
| Nc1ncnc2c(C3OC(CO)C(O)C3O)scc12 (stereo not given) | inconclusive [activator, single point] |  |
| COc1ccc(OC)c(C2c3c(-c4ccc(Br)cc4)n[nH]c3C(=O)N2c2ccc(Cl)cc2)c1 (stereo not given) | inconclusive [activator, full curve] |  |
| Cc1nc(N/N=C/c2ccc(O)cc2)c2cnn(-c3ccccc3)c2n1 | inconclusive [activator, single point] |  |
| O=C1CCCCC1c1cccc2ccccc12 (stereo not given) | inconclusive [activator, single point] |  |
| CCOC(=O)c1cc(-c2ccccc2)nc2c(O)cccc12 | inconclusive [activator, single point] |  |
| COc1ccc(C(=O)/C=C/c2ccccc2F)c(OC(=O)c2ccc([N+](=O)[O-])cc2)c1 | inconclusive [activator, single point] |  |
| c1ccc(CSc2nccc(-c3ccco3)n2)cc1 | inconclusive [activator, partial curve] |  |
| CC(=O)NC(c1ccccc1)c1cc([N+](=O)[O-])c2cccnc2c1O (stereo not given) | inconclusive [activator, partial curve] |  |
| CC1Cc2ccccc2N1C(=O)COC(=O)c1c2c(nc3ccccc13)CCCCC2 (stereo not given) | inconclusive [activator, single point] |  |
| Cc1cccc(/C(N)=N/OC(=O)c2ccncc2)c1 | inconclusive [activator, single point] |  |
| N#Cc1ccc(OC(=O)c2cc(-c3ccc(Cl)cc3)on2)cc1 | inconclusive [activator, single point] |  |
| COc1ccc(C(=O)C2CC2c2ccc3c(c2)OCO3)cc1 (stereo not given) | inconclusive [activator, single point] |  |
| Cc1cccc(NC(=O)c2ccc([N+](=O)[O-])o2)n1 | inconclusive [activator, single point] |  |
| Cn1c(Cc2cccs2)nnc1SC/C=C/c1ccccc1 | inconclusive [activator, single point] |  |
| Cc1cccc(CCNC(=O)C2CCC(CNS(=O)(=O)c3c(C)cc(C)cc3C)CC2)c1 (stereo not given) | inactive |  |
| Cn1cc(C(=O)c2ccc(Cl)cc2Cl)cc1C(=O)N/N=C(\N)COc1ccccc1 | inactive |  |
| COc1ccc(OC)c(C(=O)c2ccc(C(=O)N3CCN(Cc4csc(C)n4)CC3)cc2)c1 | inactive |  |
| CN1c2ccccc2Oc2nnc(Cl)cc21 | active: 11.2 µM |  |
| COc1ccccc1CNc1ccc(-c2nc(-c3ccccn3)no2)cc1[N+](=O)[O-] | inactive |  |
| COc1ccc(Nc2c3c(nc4ccccc24)CCCC3)cc1OC | inactive |  |
| CCOc1ccc2nc(S(N)(=O)=O)sc2c1 | inconclusive [activator, partial curve, poor fit] |  |
| COc1ccc(CC2(CO)CCN(S(=O)(=O)c3sccc3C)CC2)cc1 | inconclusive [activator, single point] |  |

| Compound | Potency | growth rescue (activation) |
| --- | --- | --- |
| CCCCCC(=O)Nc1nc(C)c(-c2csc(Nc3cc(OC)ccc3OC)n2)s1 | inactive |  |
| Cc1cc(Cl)ccc1C(=O)C1CCCN(C(=O)c2ccsc2)C1 (stereo not given) | active: 12.6 µM |  |
| CC(C)=CCC[C@H](C)C[C@@H]1Cc2[nH][nH]c(=O)c2[C@H](c2ccc(F)cc2)O1 | inconclusive [activator, single point] |  |
| CC1(C)Cc2c(C#N)c(NCCCO)nc(-c3ccccc3)c2CO1 | active: 12.6 µM |  |
| CC(=O)c1cccc(NC(=O)c2ccc(S(=O)(=O)N3CCCCC3)cc2)c1 | inconclusive [activator, full curve, poor fit] |  |
| COc1ccccc1C(=O)Nc1ccc(OCC(=O)N2CCCCC2C)cc1 (stereo not given) | inconclusive [activator, partial curve] |  |
| CCOc1cc(C(=O)N(Cc2nc(-c3ccc(C)cc3)no2)C(C)C)cc(OCC)c1OCC | inconclusive [activator, partial curve] |  |
| CCNc1nc2c(c(=O)n(C)c(=O)n2C)n1Cc1ccc(Cl)cc1 | inconclusive [activator, partial curve, poor fit] |  |
| CCc1c(SCCC(=O)O)nc2ccccc2c1C | inconclusive [activator, partial curve] |  |
| O=C(c1ccco1)N(Cc1ccc([N+](=O)[O-])cc1)c1ccc(Br)cc1 | active: 31.6 µM |  |
| Cc1nc2ccc(Br)cn2c(=O)c1Cl | inconclusive [activator, partial curve] |  |
| CCCCNC(=O)CCn1c(=O)c2ccccc2n(Cc2cccc(Cl)c2)c1=O | inconclusive [activator, partial curve] |  |
| O=C(Oc1c(CN2CCOCC2)cc(Cl)c2cccnc12)c1ccc(F)cc1 | inactive |  |
| Cc1ccccc1OCC(=O)NCCC1=CCCCC1 | inconclusive [activator, partial curve] |  |
| COc1ccccc1C(=O)NNC(=O)c1ccc(F)cc1 | inconclusive [activator, single point] |  |
| Cc1cccc(NC(=O)CN2C(=O)CCn3nc(-c4cccn4C)cc32)c1C | inconclusive [activator, partial curve] |  |
| O=C(NS(=O)(=O)c1ccccc1)c1ccccc1F | inconclusive [activator, partial curve] |  |
| O=C(CCl)Nc1c2c(nn1-c1ccccc1)CSC2 | inconclusive [activator, single point] |  |
| COCCSc1nnc(NC(=O)Cc2ccccc2OC)s1 | inconclusive [activator, single point] |  |
| COc1cccc(-c2nc3n(n2)CCc2ccccc2-3)c1 | inconclusive [activator, partial curve] |  |
| COC(=O)N1C(=O)[C@](c2ccc(Cl)cc2)(C(C)C)N1C(=O)OC | active: 35.5 µM |  |
| O=C(Cc1ccc([N+](=O)[O-])cc1)NCc1ccccc1Cl | inconclusive [activator, partial curve] |  |
